Assay results as given in PubChem BioAssay AID504845 (National Center for Advancing Translational Sciences (NCATS), 2011).
Values joined by “and” are separate entries in the source; they are usually repeats but may differ in a detail not shown here. Equal values may be shown once. The whole screen tested about 390,000 compounds, of which about 150 (0.038%) were called active. Inconclusive results, whose numbers are uncertain, are shown with a selection of clear calls. The call rests on the fitted dose curve; in most records, active means well fitted inhibition curve with a large enough effect; inconclusive means small, poorly fitted or top-dose-only effect; inactive means no such curve, though single readings can be large or run the other way. Where the call is inconclusive, the potency comes from a doubtful curve fit.
Further: nearly all actives have a fitted effect of over 75% in size.
On the % scale 0 is the no-effect control and ±100 the full control effect; potency means the concentration at half of the fitted maximal effect; tags describe the fitted curve by direction and shape.

The molecules below were run against Regulator of G-protein signaling 4 (Homo sapiens) (UniProt P49798) (assay: Inhibitors of Regulator of G Protein Signaling (RGS) 4: qHTS). Conditions: Transcreener GDP fluorescence polarization, RGS4-accelerated GTP hydrolysis; series mostly up to 114 µM; activity change, negative = inhibition: at the top concentration.
UniProt P49798, sequence (P49798 whole entry, looked up): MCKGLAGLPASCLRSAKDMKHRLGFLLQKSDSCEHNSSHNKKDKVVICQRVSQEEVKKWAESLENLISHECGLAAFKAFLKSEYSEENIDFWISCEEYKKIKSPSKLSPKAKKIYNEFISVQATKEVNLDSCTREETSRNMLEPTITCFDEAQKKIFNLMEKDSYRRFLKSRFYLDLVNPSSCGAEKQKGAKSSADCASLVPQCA
Procedure, shortened: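 MLSMR compounds (23 nl, pin-transferred) preincubated 10 min at room temperature with a 500nM (2x) first reagent, then RGS4 at 900nM (2x) plus Transcreener GDP mix added; fluorescence polarization (620/688 nm) read before and after 90 min at 30 °C.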
In the case of `COc1cc(C(=O)NC2CC(C)(C)Cc3c2cnn3-c2ccccc2)cc(OC)c1OC` (configuration not stated), the Potency is reported as inconclusive: 89.1 µM [inhibitor, partial curve, poor fit]. For `CN1CCc2c(sc3c2C(=O)NC(c2cccs2)N3)C1` (configuration not stated), the Potency was inconclusive: 44.7 µM [inhibitor, partial curve, poor fit]. With `Cc1ccc(/C=C2/C(=O)N(c3ccccc3)C(=S)N2C)o1` the Potency was inconclusive: 35.5 µM [inhibitor, partial curve, poor fit]. In the case of `Brc1ccc2[nH]c3c(N4CCc5ccccc5C4)ncnc3c2c1`, the Potency is reported as inconclusive: 28.2 µM [inhibitor, full curve, poor fit]. `Cc1nc(/N=C(\N)NC(=O)N2c3ccccc3Sc3ccccc32)nc2ccccc12` was tested, and the Potency was inconclusive: 79.4 µM [inhibitor, single point]. For `Cc1ccc(NC(=O)CN(C)C(=O)CSc2nncn2C)cc1`, the Potency was inconclusive: 89.1 µM [inhibitor, single point]. With `Cc1ccc(-c2nn(-c3ccccc3)cc2C(=O)Nc2ccc(C(=O)O)cc2)cc1` the “activity change, negative = inhibition” value was inactive: -19.2%. In the case of `COc1cc(OC)cc(-c2sc3ccc(OC)cc3c2C#CCO)c1`, the “activity change, negative = inhibition” value is reported as inactive: -3.45%. `NS(=O)(=O)c1cccc2c1c([N+](=O)[O-])cc1nc(O)c(O)nc12` was tested, and the Potency was inconclusive: 1.5 µM [inhibitor, full curve, poor fit] and inconclusive: 33.6 µM [inhibitor, single point]. `CCc1cc(=O)oc2cc(C)c(CN3CCCCC3)c(O)c12` was tested, and the Potency was inconclusive: 89.1 µM [inhibitor, single point]. `N=C1C(c2nc3ccccc3[nH]2)=C(O)CN1C1CCCCC1` was tested, and the Potency was inconclusive: 89.1 µM [inhibitor, partial curve, poor fit]. With `Cc1cnc(NC(=O)CSc2c(Cl)cccc2Cl)s1` the Potency was inconclusive: 79.4 µM [inhibitor, partial curve, poor fit]. `Cc1cc(NC(=O)CSc2nc(-c3ccc(Cl)cc3)cs2)no1` was tested, and the Potency was inconclusive: 44.7 µM [inhibitor, partial curve, poor fit]. With `O=C1C(Cl)=C(N2CCN(c3ccccc3[N+](=O)[O-])CC2)C(=O)c2ccccc21` the Potency was inconclusive: 79.4 µM [inhibitor, partial curve, poor fit]. With `CN1CCc2c(sc3c2C(=O)NC(c2ccc(-c4cccc(Cl)c4)o2)N3)C1` (configuration not stated) the Potency was inconclusive: 35.5 µM [inhibitor, partial curve, poor fit]. With `COc1cccc2sc3cc(NCC[C@@H]4CCCN4C)ccc3c(=O)c12` the Potency was inconclusive: 28.2 µM [inhibitor, full curve, poor fit]. In the case of `COc1ccccc1C(=O)Nc1nc2ccccc2[nH]1`, the Potency is reported as inconclusive: 89.1 µM [inhibitor, partial curve, poor fit]. `Cc1ccc(C(=O)Nc2nnc(SCc3cc(=O)c4c(C)ccc(C)c4[nH]3)s2)cc1` was tested, and the Potency was inconclusive: 89.1 µM [inhibitor, partial curve, poor fit]. In the case of `CC1CCN(C(=O)COC(=O)C2CCN(S(=O)(=O)c3c(Cl)cccc3Cl)CC2)CC1`, the Potency is reported as inconclusive: 79.4 µM [inhibitor, single point]. For `Cc1cccn2c(=O)c(/C=C(\C#N)C(=O)NC3CCS(=O)(=O)C3)c(Oc3ccc(F)cc3)nc12` (configuration not stated), the Potency was inconclusive: 79.4 µM [inhibitor, partial curve, poor fit]. In the case of `Cc1ccc(S(=O)(=O)N(c2cccc(C(F)(F)F)c2)C2C=CS(=O)(=O)C2)cc1` (configuration not stated), the “activity change, negative = inhibition” value is reported as inactive: 2.57%. `COC(=O)Sc1nc(N2CCOCC2)c2c(c1C#N)CC(C)(C)OC2` was tested, and the Potency was inconclusive: 100 µM [inhibitor, single point]. For `CCC1(C)N=C(c2ccc3c(c2)OCO3)CC(c2ccccc2O)N1` (configuration not stated), the “activity change, negative = inhibition” value was inactive: -12.6%. With `COc1ccc2c([N+](=O)[O-])c(Cl)[nH]c2c1` the Potency was inconclusive: 17.8 µM [inhibitor, full curve, poor fit]. For `O=C1NC2CCCCC2C(=O)N1OS(=O)(=O)c1ccccc1` (configuration not stated), the Potency was inconclusive: 28.2 µM [inhibitor, full curve, poor fit]. For `CCN(CC(=O)Nc1ccc(NC(C)=O)cc1)C(=O)COc1ccccc1-c1ccccc1`, the Potency was inconclusive: 79.4 µM [inhibitor, partial curve, poor fit]. With `COc1ccccc1N1CCN(C(=O)C2CCN(S(=O)(=O)c3ccc(C)cc3)CC2)CC1` the Potency was inconclusive: 50.1 µM [inhibitor, partial curve, poor fit]. For `COc1cccc(C(=O)N2CCN(Cc3cn[nH]c3-c3ccc(F)cc3F)CC2)c1`, the Potency was inconclusive: 56.2 µM [inhibitor, single point]. `O=C(c1ccco1)N(CCC(c1ccccc1)c1ccco1)Cc1ccco1` (configuration not stated) was tested, and the Potency was inconclusive: 89.1 µM [inhibitor, partial curve, poor fit]. `CCCCN(CCCC)CCNC(=O)c1cn(CC)c2ccc(S(=O)(=O)N3CCCC3)cc2c1=O` was tested, and the Potency was inconclusive: 50.1 µM [inhibitor, partial curve, poor fit]. `CC1=NN(C(C#N)c2ccc([N+](=O)[O-])cc2)C(C)(C)C1` (configuration not stated) was tested, and the “activity change, negative = inhibition” value was inactive: 12.3%. In the case of `CN(C)CCC(=O)c1ccc2c(c1)OCO2`, the Potency is reported as inconclusive: 100 µM [inhibitor, partial curve, poor fit]. In the case of `Cc1cc(C(=O)COC(=O)c2ccc(O)cc2)c(C)n1CC(F)(F)F`, the “activity change, negative = inhibition” value is reported as inactive: 1.34%. With `COc1ccc(OC)c(NC(=O)C(CC(=O)O)NCc2ccco2)c1` (configuration not stated) the “activity change, negative = inhibition” value was inactive: 10.5%. With `CCc1c(C)c2ccc(OCC(=O)NCC3CCC(C(=O)O)CC3)c(C)c2oc1=O` (configuration not stated) the “activity change, negative = inhibition” value was inactive: 17.9%. With `OCCN1CCN(C(=S)c2ccc(Cl)cc2)CC1` the Potency was inconclusive: 89.1 µM [inhibitor, partial curve, poor fit]. With `Cc1cc(/C([O-])=C(/C(=S)Nc2ccccc2)[n+]2ccccc2)c(C)n1-c1ccccc1` the “activity change, negative = inhibition” value was inactive: -14.8%. With `CC(C)(C)C1CCc2c(sc(NC(=O)C3CC=CCC3C(=O)O)c2C#N)C1` (configuration not stated) the Potency was inconclusive: 89.1 µM [inhibitor, single point]. With `COc1ccc(/C=C/C(=O)OCC(=O)NCc2ccccc2)cc1OC` the “activity change, negative = inhibition” value was inactive: 9.81%. With `Nc1ccc(-c2nnc(-c3ccc(N)cc3)o2)cc1` the “activity change, negative = inhibition” value was inactive: 7.74%. In the case of `CCc1nn(C(C)C(=O)N2CCN(Cc3ccccc3)CC2)c(=O)c2cc3occc3n12` (configuration not stated), the Potency is reported as inconclusive: 100 µM [inhibitor, partial curve, poor fit]. In the case of `Cc1cc(C)nc(SCC(=O)NC(=O)c2ccccc2O)n1`, the Potency is reported as inconclusive: 70.8 µM [inhibitor, partial curve, poor fit]. In the case of `N=c1c(C(=O)NCc2ccco2)cc2c(=O)n3ccccc3nc2n1CCc1ccccc1`, the “activity change, negative = inhibition” value is reported as inactive: 8.58%. `COc1cc(NC(=O)c2cccs2)c(OC)cc1NC(=O)CCC(=O)Nc1ccc2ncccc2c1` was tested, and the Potency was inconclusive: 100 µM [inhibitor, single point]. With `COCCn1nnnc1C(c1cccs1)N1CCN2CCCC2C1` (configuration not stated) the Potency was inconclusive: 79.4 µM [inhibitor, partial curve, poor fit]. For `CCCn1nc(NC(=O)c2cccs2)c2cc3cccc(C)c3nc21`, the “activity change, negative = inhibition” value was inactive: 14.4%. `CCOc1ccc(Cn2c(O)cc(=O)[nH]c2=O)cc1` was tested, and the Potency was inconclusive: 56.2 µM [inhibitor, partial curve, poor fit]. For `COc1ccc(NC(=O)c2ccc(CNS(=O)(=O)c3ccc4c(c3)C(C)(C)C(=O)N4C)cc2)cc1`, the “activity change, negative = inhibition” value was inactive: -19.7%. In the case of `COc1ccccc1C(=O)NNC(=O)C(=O)Nc1ccc(C)c(Cl)c1`, the Potency is reported as inconclusive: 70.8 µM [inhibitor, partial curve, poor fit]. In the case of `CCN1CCN(CC(=O)Nc2ccc(S(=O)(=O)N3C(C)CCCC3C)cc2)CC1` (configuration not stated), the “activity change, negative = inhibition” value is reported as inactive: 5.45%. `NC(=O)C1CCN(c2ccc(S(=O)(=O)N3CCCCC3)cc2[N+](=O)[O-])CC1` was tested, and the “activity change, negative = inhibition” value was inactive: -23.1%. `CCn1c(SCC(=O)c2ccc(Cl)cc2)nnc1C(C)C` was tested, and the Potency was inconclusive: 31.6 µM [inhibitor, full curve, poor fit]. `COc1ccc(COc2cc(-c3cccc(OC)c3)nc3ccc(NC(=O)c4ccccc4)cc23)cc1` was tested, and the “activity change, negative = inhibition” value was inactive: -10.4%. In the case of `CC(C)c1ccc2c(c1)C1(NN=C(c3ccccc3)S1)C(=O)N2` (configuration not stated), the Potency is reported as inconclusive: 89.1 µM [inhibitor, single point]. With `NC(=O)c1ccc(SCC(=O)NC2CCCCC2)c([N+](=O)[O-])c1` the “activity change, negative = inhibition” value was inactive: 3.1%. `COc1ccc(NC(=O)Nc2ccc3c(c2)C(=O)N([C@H](C)CO)C[C@H](C)[C@@H](CN(C)C(=O)Nc2ccc4c(c2)OCO4)O3)cc1` was tested, and the Potency was inconclusive: 39.8 µM [inhibitor, partial curve, poor fit]. For `CC(=O)Nc1ccc(/C(C)=N/Nc2nc(N3CCOCC3)nc(N3CCOCC3)n2)cc1`, the Potency was inconclusive: 100 µM [inhibitor, single point]. `Cc1ccc(-c2nc(-c3cccnc3)sc2CC(=O)Nc2ccc(C)c(Cl)c2)cc1` was tested, and the Potency was inconclusive: 79.4 µM [inhibitor, partial curve, poor fit]. `CC(=O)Nc1cccc(C(=O)Nc2cccc(S(=O)(=O)NCc3ccco3)c2)c1` was tested, and the Potency was inconclusive: 100 µM [inhibitor, partial curve, poor fit]. In the case of `COc1ccc2cc(CN(CC3CCCO3)C(=S)NCc3ccco3)c(=O)[nH]c2c1` (configuration not stated), the Potency is reported as inconclusive: 50.1 µM [inhibitor, partial curve, poor fit]. With `N#C/C(=C\c1c(Oc2ccccc2F)nc2ccccn2c1=O)C(=O)NC1CCS(=O)(=O)C1` (configuration not stated) the “activity change, negative = inhibition” value was inactive: -8.43%. In the case of `COc1ccc(CNC(=O)COC(=O)c2ccc(OCc3c(C)noc3C)cc2)cc1OC`, the Potency is reported as inconclusive: 50.1 µM [inhibitor, partial curve, poor fit].
